Laboratory results from PubChem BioAssay AID540267 (National Center for Advancing Translational Sciences (NCATS), 2011).
“And” between values parts separate entries of the source, which are not always exact repeats. Equal values may be shown once. The whole screen tested about 340,000 compounds, of which about 530 (0.16%) were called active. The inconclusive results got no clear call from the source; some entries with a clear call stand among them for comparison. Cut-off read from the data, not from the text of the source: active = activity change below about -80%; inconclusive = between about -30% and that limit; inactive = weaker than that.

Experiment: Small Molecules that selectively kill Giardia lamblia: qHTS;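 note: parasites exposed to compound for two days anaerobically before the ATP read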
Details: Giardia lamblia trophozoite viability; at 7.66 µM; active compounds read low
Outline: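 Media and compound were dispensed first, then trophozoites at 100 cells/well; plates sat 48 hrs at 37 deg C without oxygen before ATP luminescence reagent was added and read after 15-30 min at room temperature.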
% is set by controls: 0 for no effect and ±100 for the full control effect.

| SMILES | activity change |
| --- | --- |
| COc1ccc(OC)c2c1sc(=NC(=O)C1CC1)n2C | inconclusive: -40.1% [inhibitor] |
| CC(C)(C)C(=O)Nc1cc2nn(-c3ccccc3)nc2cc1Cl | active: -92.9% |
| COc1ccc(C(=O)N2c3ccccc3C(=O)OC2c2ccc3c(c2)OCO3)cc1 (configuration not stated) | inconclusive: -33.9% [inhibitor] |
| COc1ccc(OCC(=O)Nc2ccc(S(=O)(=O)N3CCCCC3)cc2)cc1 | inconclusive: -31.9% [inhibitor] |
| Clc1ccc(Cl)c(OCCN2CCCC2)c1 | inconclusive: -43.4% [inhibitor] |
| CC(=O)Nc1nc(NC(=O)/C=C/c2ccccc2)n(-c2ccccc2)n1 | inconclusive: -30% [inhibitor] |
| CCCCOC(=O)c1ccc(S(N)(=O)=O)o1 | inconclusive: -33.1% [inhibitor] |
| CCC1CCCCN1C(=O)c1ccc([N+](=O)[O-])o1 (configuration not stated) | active: -97% |
| COc1ccc(C2OC(=O)CC2C(=O)NCc2ccc(F)cc2)cc1OC (configuration not stated) | inactive: 11% |
| Cc1ccc(-c2nc3ncccc3o2)cc1NC(=O)c1cccnc1 | inconclusive: -43% [inhibitor] |
| CCSc1nnc(NC(=O)c2cccc(S(=O)(=O)N(C)c3ccccc3)c2)s1 | inconclusive: -36% [inhibitor] |
| O=C(Nc1nnc(SCC(=O)N2CCOCC2)s1)c1ccccc1 | inconclusive: -61.2% [inhibitor] |
| CC(C)(C)c1ccc(NC(=O)c2ccc(=O)[nH]n2)cc1 | inactive: 21.5% |
| O/C(=C\c1nc2ccccc2nc1/C=C(\O)c1ccccc1)c1ccccc1 | inconclusive: -34.8% [inhibitor] |
| COC(=O)c1c(NC(=O)Cc2ccccc2)sc(C)c1C | inactive: 1.39% |
| Cc1[nH]c2ccccc2c1Cc1nnc(SCC(=O)NCc2ccco2)o1 | inconclusive: -39.3% [inhibitor] |
| O=C(CSc1nccn1-c1ncc(C(F)(F)F)cc1Cl)c1ccc(Br)cc1 | inactive: -0.0742% |
| COc1cc(C(=O)Nn2c(O)c(C3=c4ccccc4=NC3=O)sc2=S)ccc1O | inconclusive: -31.5% [inhibitor] |
| COC(=O)c1nnn(CC(=O)NC(=O)Nc2cccc(Cl)c2C)c1C(=O)OC | inconclusive: -32.8% [inhibitor] |
| COc1ccc2nc(NC(=O)c3ccco3)sc2c1 | inconclusive: -41.1% [inhibitor] |
| O=C(NCc1ccco1)C1CCC(N2C(=O)C3C4CCC(C4)C3C2=O)CC1 (configuration not stated) | inconclusive: -30.6% [inhibitor] |
| COc1cc(C(=O)NCCNc2nc3cc(C)ccc3cc2C#N)cc(OC)c1OC | inactive: 4.75% |
| COc1cc2ncc(S(=O)(=O)c3ccccc3)c(N3CCC4(CC3)OCCO4)c2cc1OC | inconclusive: -31.3% [inhibitor] |
| Nc1ccc(Oc2ccc3c(c2)C(=O)N(CC2CCCO2)C3=O)cc1 (configuration not stated) | inconclusive: -33.1% [inhibitor] |
| COc1ccc2nc(C)cc(N/N=C/c3ccc(F)cc3)c2c1 | active: -80.6% |
| COc1ccc2oc(C(=O)OCC(=O)NC(=O)NC(C)C)c(C)c2c1 | inactive: -1.13% |

| SMILES | activity change |
| --- | --- |
| Cc1ccc2nc(-c3ccc(Br)cc3)cn2c1 | inconclusive: -40% [inhibitor] |
| CCN1CCN(c2ccc(NC(=O)COc3ccc(Cl)cc3C)cc2)CC1 | inconclusive: -31.5% [inhibitor] |
| COc1cc(CCC(=O)OCC(=O)Nc2ccc3c(c2)OCO3)cc(OC)c1OC | inconclusive: -36.6% [inhibitor] |
| Cc1cc(C)c(C)c(S(=O)(=O)N2CCN(C(=O)c3cc(=O)[nH]c4ccccc34)CC2)c1C | inactive: 3.41% |
| Cc1cc(-c2ccco2)n(CC(=O)NCc2ccccc2)n1 | inconclusive: -41.3% [inhibitor] |
| N#Cc1ccc(/C=C(\C(=O)C(=O)O)c2ccc3ccccc3n2)cc1 | inconclusive: -30.9% [inhibitor] |
| Cc1ccc(-c2cc(C(=O)N/N=C/c3ccc(F)cc3)n[nH]2)o1 | inactive: -17.5% |
| C#CCOCCOCCOCCNc1nc(N2CCN(C(=O)[C@H]([C@@H](C)CC)n3cc([C@@H](N)CC(C)C)nn3)CC2)nc(N2CCN(C(=O)[C@H](Cc3ccc(O)cc3)n3cc([C@@H](N)CC(C)C)nn3)CC2)n1 | inconclusive: -36.5% [inhibitor] |
| O=C(CN1CCN(CC(=O)Nc2ccccc2Cc2ccccc2)CC1)Nc1ccccc1Cl | inconclusive: -30.3% [inhibitor] |
| O=c1c2c3c(sc2n(CCN2CCOCC2)c(=O)n1Cc1ccco1)CCCCC3 | inactive: 7.44% |
| O=C(Nc1nc2ccccc2s1)c1ccc(Cl)s1 | inconclusive: -35.4% [inhibitor] |
| Cc1cc(C)nc(Nc2nc3ccccc3[nH]2)n1 | inactive: -3.3% |
| COc1ccc(C2Nc3ccccc3C(=O)N2Cc2ccco2)cc1COc1ccc([N+](=O)[O-])cc1 (configuration not stated) | inactive: -2.8% and inactive: 8.24% |
| O=C(Nc1ccc2c(c1)OCCO2)c1ccc(Cl)cc1Cl | inconclusive: -52.9% [inhibitor] |
| [O-][n+]1c2ccccc2c2n1CCN1CCOC21c1ccc(Cl)cc1 (configuration not stated) | inconclusive: -31.9% [inhibitor] |
| COC(=O)CCCN1C(=O)NC(c2ccc(-c3ccccc3)cc2)C(C(=O)OCc2ccccc2)=C1C (configuration not stated) | inconclusive: -33.4% [inhibitor] |
| CC(/C=N/NC(=O)c1cc(-c2ccc(C)o2)[nH]n1)=C\c1ccccc1 | inconclusive: -40.1% [inhibitor] |
| CCOc1ccc(-c2nnc(SCC(=O)NC3CC3)o2)cc1 | inconclusive: -31.7% [inhibitor] |
| CN(C)c1ccc(/C=C/C#N)cc1 | inconclusive: -32.1% [inhibitor] |
| COc1ccc(C2=Nc3nc(-c4ccccc4)cn3C(c3ccc(OC)cc3)C2)cc1 (configuration not stated) | inconclusive: -35.4% [inhibitor] |
| O=C(c1ccco1)N1N=C(c2ccc(Cl)cc2)CC1(O)C(F)(F)F (configuration not stated) | inconclusive: -36.7% [inhibitor] |
| CN(Cc1cccnc1)Cc1cn(C)nc1-c1cccc(Cl)c1 | inconclusive: -31.4% [inhibitor] |
| C/C(CC1CC(C)OC1=O)=N\NC(N)=S (configuration not stated) | inconclusive: -37.3% [inhibitor] |
| COc1cc(NC(=O)c2ccco2)c(C(=O)OCC(=O)c2c[nH]c3ccccc23)cc1OC | inactive: -4.36% |
| CCn1c(=O)c2sccc2n(CC(=O)NCCC2=CCCCC2)c1=O | inactive: -2.12% |
| Fc1ccccc1C1CC(c2ccco2)=Nc2ccccc2S1 (configuration not stated) | inconclusive: -33.1% [inhibitor] |

| SMILES | activity change |
| --- | --- |
| CN(C)c1ccc(C2NC(=O)c3ccccc3N2)cc1 (configuration not stated) | inconclusive: -50.9% [inhibitor] |
| Cc1cc(/C=C2/C(=O)NN(c3ccccc3)C2=O)c(C)n1-c1ccc(O)cc1 | inconclusive: -53.7% [inhibitor] |
| COc1cccc(Nc2ccc(C(=O)O)cc2[N+](=O)[O-])c1 | inconclusive: -34.4% [inhibitor] |
| COc1ccc(-c2nc3ccccc3s2)cc1 | inconclusive: -31.7% [inhibitor] |
| COc1ccc(C)cc1NC(=O)CNC(c1ccccc1)c1ccc(C)cc1 (configuration not stated) | inconclusive: -43% [inhibitor] |
| CSCC[C@@H](C(=O)NCc1cccs1)N1Cc2ccccc2C1=O | inconclusive: -30.4% [inhibitor] |
| CCC(C)[C@@H](CN(N=O)[C@@H](Cc1ccccc1)CN(C)N=O)N(CCc1ccccc1)N=O (some centres not stated) | inconclusive: -42.7% [inhibitor] |
| CCc1nnc(NS(=O)(=O)c2ccc(N/C=C/C(=O)c3ccc(C)cc3)cc2)s1 | inactive: -4.62% |
| CC1CN(CCOc2ccccc2C(C)C)CC(C)O1 (configuration not stated) | inconclusive: -32.5% [inhibitor] |
| COc1ccc(S(=O)(=O)N2CCOCC2)cc1NC(=O)COc1cccnc1[N+](=O)[O-] | inconclusive: -77% [inhibitor] |
| C/C(=N/NC(=O)c1ccc2c(c1)OCO2)c1cccc([N+](=O)[O-])c1 | inactive: -5.21% |
| CCC[C@@H](NS(=O)(=O)c1ccc(C)cc1)C(=O)Oc1ccc2c3c(c(=O)oc2c1)CCC3 | inactive: -18.6% |
| Cc1cc(NC(=O)C2Oc3ccccc3OC2C)no1 (configuration not stated) | inactive: -18.8% |
| Cc1ccc(N2CC(C(=O)Nc3ncc([N+](=O)[O-])s3)CC2=O)cc1 (configuration not stated) | active: -85.3% |
| O=C(CSc1ccc2c(c1)OCCO2)N1CCN(c2ccccc2O)CC1 | inactive: 6.02% |
| Oc1ccc(C[C@@H]2CNCCN2CCCCC2CCCCC2)cc1 | inconclusive: -31.2% [inhibitor] |
| Cc1nnc(SCC(=O)NC(=O)NCc2ccco2)s1 | inconclusive: -37.8% [inhibitor] |
| O=C(O)CNC(=O)c1ccc(NC(=O)/C(=C/c2ccccc2)NC(=O)c2ccco2)cc1 | inconclusive: -34.1% [inhibitor] |
| COc1cc2c(cc1OC)CN(CC(O)c1ccccc1)CC2 (configuration not stated) | inactive: -9.64% |
| CC(=O)O[C@@H]1[C@@H](OC(C)=O)[C@H](n2ccc3cc([N+](=O)[O-])ccc32)OC[C@@H]1OC(C)=O | inconclusive: -53.2% [inhibitor] |
| O=C(Nc1nc(COc2ccccc2)cs1)C1CCC1 | inactive: 13.4% |
| O=[N+]([O-])c1nn(-c2ccc3c(c2)OCCO3)n(O)c1=NC1CCCC1 | inconclusive: -67.3% [inhibitor] |
| O=C(c1ccc([N+](=O)[O-])s1)N1CCc2ccccc2C1 | inconclusive: -51.1% [inhibitor] |
| COc1ccc(/C=C/C(=O)c2oc3ccc(F)cc3c2C)cc1 | inactive: -1.09% |
| CCN(CC(=O)Nc1ccccc1C(F)(F)F)C(=O)Cn1c(=O)cnc2ccccc21 | inconclusive: -34.5% [inhibitor] |
